Results taken from PubChem BioAssay AID1345082 (National Center for Advancing Translational Sciences (NCATS), 2018).
The campaign covered roughly 94,000 compounds. About 4,000 (4.3%) were called active. Inconclusive results, whose numbers are uncertain, are shown with a selection of clear calls. The call rests on the fitted dose curve; in most records, active means well fitted inhibition curve with a large enough effect; inconclusive means small, poorly fitted or top-dose-only effect; inactive means no such curve, though single readings can be large or run the other way. Where the call is inconclusive, the potency comes from a doubtful curve fit.

Experiment: Cytotoxic Profiling in NIH 3T3 Cell Line of Diverse Libraries Using Quantitative High-Throughput Screening; further: nearly all actives have a fitted effect of over 55% in size
Settings: NIH 3T3 viability, CellTiter-Glo ATP luminescence, 48-72 h; series mostly up to 96.7 µM
In short: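 First NIH 3T3 cells are plated at 400 cells/well; next compound is pinned in; then plates incubate 48 or 72 hr at 37 °C; finally CellTiter-Glo is added and luminescence read after 10 min.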
Potency means the concentration at half of the fitted maximal effect; tags describe the fitted curve by direction and shape.

SMILES	Potency
CSc1ccc(-c2cccc(C(=O)NCCNC(=O)Cc3ccc(F)cc3)c2)cc1	inconclusive: 44.7 µM [inhibitor, partial curve]
COc1ccc(C(=O)Nc2cc(-c3ccccn3)nn2-c2ccccc2)cc1	inconclusive: 50.1 µM [inhibitor, single point]
COCc1ccc2c(c1)c(OC(C)(C)C(=O)Nc1ccccc1)nn2Cc1cccnc1	inconclusive: 89.1 µM [inhibitor, partial curve, poor fit]
COc1ccc(-n2nc(C3CCCN(C(=O)C(C)(C)C)C3)[nH]c2=O)cc1 (stereo not drawn)	inconclusive: 70.8 µM [inhibitor, partial curve, poor fit]
O=C1CC2(CCN(C(=O)C3CCCN3C(=O)Cc3cccc(Cl)c3)CC2)Oc2ccccc2N1 (stereo not drawn)	inconclusive: 50.1 µM [inhibitor, partial curve, poor fit]
O=C(OCc1ccccc1)N1CCOCC12CCN(Cc1ccncc1Cl)CC2	inconclusive: 79.4 µM [inhibitor, partial curve]
Cc1ccccc1N1Cc2c(NCCOc3ccccc3)ncnc2N(C)CC1=O	inconclusive: 44.7 µM [inhibitor, partial curve, poor fit]
O=C(NCc1cccs1)C1CCCCN1Cc1ccc(-c2ccsc2)cc1 (stereo not drawn)	active: 25.1 µM
CC1=C[C@@H](CNC2CCOCC2)[C@H](C(C)C)C[C@H]1Cc1nc2ccc(F)cc2[nH]1	inconclusive: 100 µM [inhibitor, partial curve, poor fit]
Cc1noc(C)c1-c1cc2cc(CN(C)C)oc2c(NC(C)C)n1	inconclusive: 112 µM [inhibitor, single point]
CCn1ncc(CN(C)C(=O)c2c(C)oc3c2CN(Cc2ccc(OC)cc2)CC3)c1C	inconclusive: 44.7 µM [inhibitor, partial curve, poor fit]
C1=C(c2cc(-c3cccc4[nH]ccc34)cn3cncc23)CCOC1	inconclusive: 11.2 µM [inhibitor, full curve]
COc1ccccc1-c1cccc(CN2CCCC(C(=O)N(C)C)C2)c1 (stereo not drawn)	inconclusive: 89.1 µM [inhibitor, partial curve]
Cc1nc(N2CCN(C(=O)C(C)Oc3ccccc3)CC2)cc(C(F)(F)F)n1 (stereo not drawn)	inconclusive: 44.7 µM [inhibitor, partial curve, poor fit]
CC(=O)Nc1ccc(CN2C(=O)OC3(CCN(C(=O)C(C)C)CC3)C2(C)c2ccccc2)cc1 (stereo not drawn)	inconclusive: 50.1 µM [inhibitor, partial curve, poor fit]
Cc1ccc(-c2cccc(CN3CCCC3C(=O)N(C)C)c2)cc1Cl (stereo not drawn)	inconclusive: 50.1 µM [inhibitor, partial curve, poor fit]
COC[C@@H]1CN(Cc2cccc(OC)c2OC)C[C@H]1c1ccncc1	inconclusive: 31.6 µM [inhibitor, partial curve, poor fit]
Cc1csc(S(=O)(=O)N2CCOC(CCc3ccccc3)C2)c1 (stereo not drawn)	inactive
C=CCOc1c(OC)ccc2c1CN(C1CCCC1)C(=O)CCN2C[C@@H](O)COCc1ccccc1	inconclusive: 44.7 µM [inhibitor, partial curve, poor fit]

SMILES	Potency
Cn1cc(-c2cnc3[nH]cc(CC(=O)NCc4ccncc4)c3c2)cn1	inconclusive: 100 µM [inhibitor, single point]
COc1ccc(C2Cn3nnc(-c4noc(-c5ccc[nH]5)n4)c3CO2)cc1 (stereo not drawn)	inconclusive: 44.7 µM [inhibitor, partial curve]
Cc1ccc2oc([C@H]3CCN(Cc4c[nH]c5ccccc45)C3)nc2c1	active: 56.2 µM
COCC(=O)N(C1CCOCC1)C1CCN(C(=O)Cc2ccc(OC)cc2)CC1	inactive
COCCN1CCCCCC(O)c2cc(C(=O)NC3CCCCC3)ccc21 (stereo not drawn)	inactive
COc1ccc(-c2cnc(NC(=O)Cc3ccccc3)c3c2CCO3)cn1	inconclusive: 89.1 µM [inhibitor, partial curve]
Cc1ccsc1CN1CCC(Oc2ccccc2-c2nc(-c3ccncc3)no2)C1 (stereo not drawn)	active: 31.6 µM
Cc1cc(C(=O)N2CCC(Oc3ccc(C(=O)NC4CCCC4)cc3Cl)CC2)n(C)n1	inconclusive: 56.2 µM [inhibitor, partial curve, poor fit]
Cc1ccc(NC(=O)CCC[C@H]2NC[C@@H]3C[C@H]2CN(Cc2ccccc2)C3)cc1	inconclusive: 70.8 µM [inhibitor, partial curve, poor fit]
COc1cccc(CCC2CCCN(C(=O)c3ccsc3)C2)c1 (stereo not drawn)	inconclusive: 50.1 µM [inhibitor, partial curve, poor fit]
COc1ccc(Nc2cnc3ccc(N(C)Cc4cccnc4)nn23)cc1OC	inconclusive: 35.5 µM [inhibitor, partial curve, poor fit]
Cn1ncc2c(C(=O)NCC#N)cc(-c3ccccc3C(F)(F)F)nc21	inconclusive: 44.7 µM [inhibitor, partial curve, poor fit]
CCc1nc2c(c(-c3ccc(Cl)cc3)n1)CN(C(=O)C1CCCC1)CC2	inconclusive: 17.8 µM [inhibitor, full curve, poor fit]
Cc1noc2c(NC3CCN(C)CC3)cc(-c3cccs3)nc12	inconclusive: 20 µM [inhibitor, full curve, poor fit]
Cc1cc(CN(C)C(=O)c2cc(COc3ccc(F)cc3F)on2)on1	inconclusive: 50.1 µM [inhibitor, partial curve, poor fit]
COC1CCN(C(=O)c2ccnc(-c3nnc4ccc(Nc5ccccc5)nn34)c2)CC1	inconclusive: 89.1 µM [inhibitor, partial curve, poor fit]
O=C(NCc1cccc(C(F)(F)F)c1)C1CCN(Cc2ccccc2-c2ccccc2F)CC1	inconclusive: 20 µM [inhibitor, full curve, poor fit]
O=C(Cc1ccc(N(Cc2cccc(F)c2)C(=O)c2ccco2)cc1)Nc1ccccc1	active: 35.5 µM
COCC(=O)N1CCN(c2nccc(Nc3ccccc3Cl)n2)CC1	inconclusive: 44.7 µM [inhibitor, partial curve, poor fit]
